# PubChem BioAssay AID2147 (National Center for Advancing Translational Sciences (NCATS), 2009)
# Several values for one entry are separate records, joined by “and”; a condition that tells them apart may be missing. Equal entries are not always repeated. About 3,600 (1.6%) of roughly 230,000 compounds were called active. Inconclusive results, whose numbers are uncertain, are shown with a selection of clear calls. Calls follow the shape of the dose curve; as a rule, active = well fitted inhibition curve with a large enough effect (not every such curve was filed as active); inconclusive = small, poorly fitted or top-dose-only effect, or another doubt; inactive = no such curve, though single readings can be large or run the other way. Potencies of inconclusive entries are doubtful fits and often do not repeat.
# Biological target: Lysine-specific demethylase 4E (Homo sapiens) (UniProt B2RXH2)
# Assay: qHTS Assay for Inhibitors of Human Jumonji Domain Containing 2E (JMJD2E)
# Details: JMJD2E catalytic domain, FDH-coupled NADH fluorescence (FDH is formaldehyde dehydrogenase); series mostly up to 57.1 µM; activity change, negative = inhibition: at the top concentration
# Also: nearly all actives have a fitted effect of over 50% in size.
# 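For activity change, negative = inhibition in this document: 0% = wells with enzyme and -100% = buffer wells without enzyme.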
# Potency is read from the fitted curve at half-maximal effect; tags tell the direction and shape of the fitted curve.
# UniProt B2RXH2, sequence (B2RXH2 whole entry, looked up, the tested form may be a part): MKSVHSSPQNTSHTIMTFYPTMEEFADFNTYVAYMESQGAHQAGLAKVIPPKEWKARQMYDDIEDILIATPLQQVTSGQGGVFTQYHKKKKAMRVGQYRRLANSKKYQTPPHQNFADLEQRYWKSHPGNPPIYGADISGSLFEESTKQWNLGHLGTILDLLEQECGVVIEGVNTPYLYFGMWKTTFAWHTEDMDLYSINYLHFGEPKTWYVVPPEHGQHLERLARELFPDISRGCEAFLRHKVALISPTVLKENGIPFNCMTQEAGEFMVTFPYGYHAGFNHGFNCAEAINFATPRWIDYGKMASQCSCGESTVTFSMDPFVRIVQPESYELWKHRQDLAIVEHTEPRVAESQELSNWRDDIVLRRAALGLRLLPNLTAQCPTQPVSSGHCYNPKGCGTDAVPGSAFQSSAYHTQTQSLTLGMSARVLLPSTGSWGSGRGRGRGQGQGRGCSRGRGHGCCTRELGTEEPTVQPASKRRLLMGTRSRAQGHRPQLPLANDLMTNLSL
Compound,Potency,"activity change, negative = inhibition"
O=C(Nc1ccccn1)c1ccc2nc(-c3ccccc3)c(-c3ccccc3)nc2c1,"inconclusive: 14.1 µM [inhibitor, single point]",
C#CCn1c(=NC(=O)c2ccc(Br)s2)sc2cc(NC(C)=O)ccc21,"inconclusive: 14.1 µM [inhibitor, partial curve]",
CCn1c(=N)c(C(=O)NCc2cccnc2)cc2c(=O)n3cccc(C)c3nc21,"inconclusive: 3.16 µM [inhibitor, partial curve]",
O=C(Nc1ccccc1)c1ccccc1OCC(O)CN1C(=O)c2ccccc2S1(=O)=O (stereo unspecified),,inactive: 6.6%
COc1ccccc1-c1nnc(Nc2nc3c(OC)cccc3s2)o1,"inconclusive: 28.2 µM [inhibitor, partial curve]",
CC(=Nc1ccc(Br)cc1)c1sc2ccccc2c1O,"inconclusive: 25.1 µM [inhibitor, single point]",
COc1cc(NC(=O)c2csc(-c3ccncc3)n2)cc(C(=O)Nc2cccc(C(F)(F)F)c2)c1,"inconclusive: 39.8 µM [inhibitor, single point]",
Cc1ccc(S(=O)(=O)Nc2ccc(-c3cn4ccc(C)cc4n3)cc2)cc1,"inconclusive: 39.8 µM [inhibitor, single point]",
CCN1CCN(C(=O)CCCCCn2c(=O)[nH]c3cc(C(=O)OC)ccc3c2=O)CC1,"inconclusive: 31.6 µM [inhibitor, partial curve]",
O=C(CN1CCOCC1)Nc1nc2cc([N+](=O)[O-])ccc2s1,,inactive: -4.59%
O=C(CS(=O)(=O)c1c[nH]c2ccccc12)N1CCCCCC1,,inactive: -0.258%
CCOc1ccc(OCCOCCNCCOC)cc1,"inconclusive: 39.8 µM [inhibitor, single point]",
CC(=O)N1CC2(CC2)CC1c1ccccc1 (stereo unspecified),,inactive: 8.91%
C=CCc1cccc2cc(C(=O)NCc3cccnc3)c(=O)oc12,"inconclusive: 25.1 µM [inhibitor, partial curve]",
O=C(O)CNS(=O)(=O)c1ccc2[nH]c(=O)c(=O)[nH]c2c1,"inconclusive: 31.6 µM [inhibitor, partial curve]",
Nc1ccc(-c2cnc(-c3ccc(N)cc3)nc2)cc1,"inconclusive: 35.5 µM [inhibitor, single point]",
COc1ccc(-c2cc3ccccc3[nH]2)cc1,"inconclusive: 28.2 µM [inhibitor, partial curve]",
Nc1ccc(S(=O)(=O)c2cccc(N)c2)cc1,,inactive: -8.55%
CCONc1ncnc2nonc12,,inactive: 1.86%
Cc1ccc(-c2nc(NC(=O)c3nn(C)cc3[N+](=O)[O-])sc2C)cc1C,,inactive: 7.34%
COc1ccc2c(c1)C(C)=CC(C)(C)N2C(=O)CN1C(=O)CCC1=O,,inactive: 2.8%
CC(C)C(=O)c1cc2c(cc1NC(=O)c1ccccc1)OCCO2,"inconclusive: 35.5 µM [inhibitor, single point]",
O=C(O)c1cccc2[nH]c(C(F)(F)F)nc12,"inconclusive: 39.8 µM [inhibitor, single point]",
C[C@@H]1O[C@@H](Oc2c(-c3cc(O)c(O)c(O)c3)oc3cc(O)cc(O)c3c2=O)[C@H](O)[C@H](O)[C@H]1O,active: 2.24 µM,

Compound,Potency,"activity change, negative = inhibition"
Cc1noc(NS(=O)(=O)c2ccc(N/C=C\C(=O)c3ccncc3)cc2)c1C,,inactive: -2.42%
CCOC(=O)C(C)Oc1ccc2c(CC)cc(=O)oc2c1C (stereo unspecified),"inconclusive: 31.6 µM [inhibitor, partial curve]",
COc1ccc(NC(=O)c2ccco2)cc1N,"inconclusive: 39.8 µM [inhibitor, single point]",
CCCNC(=O)c1ccccc1NC(=O)c1ccccc1N(C)S(C)(=O)=O,,inactive: 1.25%
CCCCCCCc1cc2c(cn1)C(=O)C(C)(OC(C)=O)C(O)=C2Cl (stereo unspecified),,inactive: 6.16%
Cn1c(=O)c(C(=O)COC(=O)c2cc(-c3ccco3)nc3ccccc23)c(N)n(Cc2ccccc2)c1=O,"inconclusive: 14.1 µM [inhibitor, partial curve] and inconclusive: 10 µM [inhibitor, partial curve]",
CCN(CC)c1ccc(/C=N/NC(=S)NCc2ccccc2)c(O)c1,"inconclusive: 28.2 µM [inhibitor, partial curve]",
COc1ccc(OC)c(N=Cc2c(O)[nH]c3ccccc23)c1,"inconclusive: 35.5 µM [inhibitor, single point]",
CCc1noc(C)c1C(=O)N1CCCC(C(=O)c2cc(F)ccc2OC)C1 (stereo unspecified),"inconclusive: 39.8 µM [inhibitor, single point]",
CCN(c1ccccc1)S(=O)(=O)c1ccc(NC(=O)c2ccco2)cc1,"inconclusive: 8.91 µM [inhibitor, single point]",
Oc1c(Br)cc(/C=N/NC(=S)NCc2ccco2)cc1Br,"inconclusive: 28.2 µM [inhibitor, partial curve]",
Clc1ccc2c(c1)C1OCCC1C(c1ccco1)N2 (stereo unspecified),"inconclusive: 31.6 µM [inhibitor, partial curve]",
Cn1c(=O)c2ncn(CC(=O)N/N=C/C=C/c3ccccc3)c2n(C)c1=O,"inconclusive: 39.8 µM [inhibitor, single point]",
COc1ccc(C)cc1-n1c(C)cc(C=O)c1C,,inactive: -9.9%
Cc1ccc(S(=O)(=O)N2CCN(CC(=O)NC(=O)NCc3ccco3)CC2)cc1C,,inactive: -5.49%
CC(C)C(=O)NC(c1ccco1)c1ccc2cccnc2c1O (stereo unspecified),"inconclusive: 35.5 µM [inhibitor, single point]",
O=S(=O)(/C=C/c1ccccc1)N1CCN(c2nc(-c3cccnc3)nc3ccccc23)CC1,"inconclusive: 39.8 µM [inhibitor, single point]",
Cn1nnnc1SCC(=O)NC1CCCc2ccccc21 (stereo unspecified),,inactive: -0.299%
COc1ccccc1N1CCN(C(=O)c2c(-c3ccccc3)noc2C)CC1,"inconclusive: 35.5 µM [inhibitor, partial curve]",
COc1ccc2c(c1)O[C@@H](c1cccc(C(F)(F)F)c1)[C@H](OC(=O)Nc1cc(OC)c(OC)c(OC)c1)C2=O,,inactive: -0.833%
CC12CCC(C(=O)N(NC(=O)c3cc(Cl)ccc3O)C1=O)C2(C)C (stereo unspecified),"inconclusive: 28.2 µM [inhibitor, partial curve]",
O=C(NC(=S)Nc1ccc(N2CCOCC2)cc1)c1ccc(Cl)cc1,,inactive: 0.604%
Nc1c(C(=O)NCc2ccco2)nnn1Cc1ccccc1,,inactive: -2.82%
Cc1cc2ccc(=O)oc2cc1OC[C@@H](O)C(C)(C)O,"inconclusive: 20 µM [inhibitor, partial curve]",

Compound,Potency,"activity change, negative = inhibition"
C/C(CC(=O)Nc1ccc(Cl)c(C(F)(F)F)c1)=N\NC(=O)c1cc2ccccc2cc1O,"inconclusive: 39.8 µM [inhibitor, single point]",
O=C(O)CCCN1C(=O)/C(=C/C=C/c2ccco2)SC1=S,,inactive: -0.0797%
Cc1ccc2nc(-c3ccccc3)cc(C(=O)NCCCn3ccnc3)c2c1,"inconclusive: 25.1 µM [inhibitor, partial curve]",
CC1=C(OC(=O)c2ccccc2)C(C)(C)C(c2ccc(Br)cc2)OC1=O (stereo unspecified),"inconclusive: 39.8 µM [inhibitor, single point]",
CCOC(=O)c1ccc2nc(C)c3c(c2c1)OC(C)C3 (stereo unspecified),"inconclusive: 31.6 µM [inhibitor, partial curve]",
O=C(Cn1nc(Cc2cccnc2)c2ccccc2c1=O)N1CCN(c2ccccn2)CC1,"inconclusive: 39.8 µM [inhibitor, single point]",
C=CCn1c(C)cc(C2=NNC(=NCc3ccccc3)SC2)c1C,"inconclusive: 20 µM [inhibitor, single point]",
CCCCn1c(SCC(=O)c2ccc(O)c(O)c2)nc2ccsc2c1=O,"inconclusive: 39.8 µM [inhibitor, single point]",
COc1ccc(OCc2nnc(NC(=O)Nc3ccc(F)cc3)s2)cc1,,inactive: 11.4%
COc1cc2c(cc1OC)-c1cc(NCc3ccccn3)nc(=O)n1CC2,"inconclusive: 25.1 µM [inhibitor, partial curve]",
CCN1CCN(c2cc(C)c3cc(NC(=S)NCc4cccs4)ccc3n2)CC1,"inconclusive: 25.1 µM [inhibitor, partial curve]",
CC1=C(C#N)C(c2cccnc2)C2=C(N1)c1ccccc1C2=O (stereo unspecified),"inconclusive: 20 µM [inhibitor, partial curve]",
COc1ccccc1C(=O)Nc1ccc2c(c1)nc1n2CCN(Cc2ccccc2)C1,"inconclusive: 8.91 µM [inhibitor, partial curve]",
CC(=O)N1[C@H](Cc2ccccc2)C=C[C@]1(C)C(=O)NCc1ccc(C)o1,inactive,
CC1=C(C(=O)N2CCc3ccccc32)C2(CCC(C)CC2)OC1=O (stereo unspecified),,inactive: 1.08%
O=C(O)c1cccc(Cn2c(Cl)c(/C=N/Nc3ccccc3)sc2=O)c1,,inactive: -24.2%
Cc1cc2nc(-c3ccc(SCC(=O)Nc4nccs4)nc3)[nH]c2cc1C,"inconclusive: 17.8 µM [inhibitor, partial curve]",
COc1cccc(-c2oc3ccccc3c(=O)c2O)c1,"inconclusive: 25.1 µM [inhibitor, partial curve]",
CCOC(=O)Cc1c(C)nc(SC)[nH]c1=O,"inconclusive: 39.8 µM [inhibitor, single point]",
C/C(N)=C(/C#N)C(=O)CSc1nnc(Nc2ccccc2)s1,,inactive: -0.735%
COc1ccc2c(=O)c(-c3cnn(-c4ccccc4)c3)c(C)oc2c1,"inconclusive: 25.1 µM [inhibitor, single point]",
COC(=O)c1ccc(-c2cc(C(=O)O)c3cc4c(cc3n2)OCCO4)cc1,"inconclusive: 25.1 µM [inhibitor, partial curve]",
C#CCOCCOCCOCCNc1nc(N2CCN(C(=O)[C@H](CCC(=O)O)n3cc(C(N)CO)nn3)CC2)nc(N2CCN(C(=O)[C@H](CCC(=O)O)n3cc(C(N)CO)nn3)CC2)n1 (stereo partly specified),,inactive: -6.37%
